The campaign covered roughly 110,000 compounds. About 230 (0.21%) showed an effect of 50% or more. This is one part of the list.
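Further: 30 min substrate incubation versus DMSO and 10 µM JCP410 controls.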

For this test, the target named is DPAP1 (Plasmodium falciparum, UniProt Q8IIJ9). Kind of test: primary screen, percent inhibition; read by cleavage of a fluorogenic dipeptide substrate; higher = more effect of the substance. Also on record: species or system P. falciparum D10 trophozoite lysates; single well.
Sequence of DPAP1 (Q8IIJ9 whole entry, looked up): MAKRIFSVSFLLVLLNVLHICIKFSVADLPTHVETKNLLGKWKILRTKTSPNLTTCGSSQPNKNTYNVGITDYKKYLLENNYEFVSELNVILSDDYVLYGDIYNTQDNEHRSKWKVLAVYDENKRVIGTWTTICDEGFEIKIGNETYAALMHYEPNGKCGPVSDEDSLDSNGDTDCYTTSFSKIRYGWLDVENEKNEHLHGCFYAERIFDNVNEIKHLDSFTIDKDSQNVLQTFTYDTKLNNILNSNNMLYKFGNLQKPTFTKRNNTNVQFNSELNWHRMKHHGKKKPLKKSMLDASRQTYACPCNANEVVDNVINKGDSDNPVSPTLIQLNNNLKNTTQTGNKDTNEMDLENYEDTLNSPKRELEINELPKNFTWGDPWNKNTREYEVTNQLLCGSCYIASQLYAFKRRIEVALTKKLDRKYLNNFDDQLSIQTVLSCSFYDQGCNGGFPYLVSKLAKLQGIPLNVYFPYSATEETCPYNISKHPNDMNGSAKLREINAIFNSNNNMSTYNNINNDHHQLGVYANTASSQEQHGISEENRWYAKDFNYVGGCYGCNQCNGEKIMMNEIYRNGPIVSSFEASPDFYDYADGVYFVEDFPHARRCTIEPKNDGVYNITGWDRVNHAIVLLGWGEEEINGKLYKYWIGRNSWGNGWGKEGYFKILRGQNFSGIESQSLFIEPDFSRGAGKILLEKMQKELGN
In the case of `c1ccc(-c2nnc3sc(-c4ccco4)nn23)cc1`, the “% Inhibition @ 10 uM” value was 3.38%.

Take `COc1cccc(CN2CCN(c3cccc(Cl)c3)CC2)c1`: the “% Inhibition @ 10 uM” value worked out at 2.47%.

Regarding `CCOC(=O)C1=C(CS(=O)(=O)c2ccc(F)cc2)NC(=O)NC1c1ccc(OC)cc1OC` (stereo not shown), the “% Inhibition @ 10 uM” value was 5.92%.

`O=[N+]([O-])c1ccc2c3c(cccc13)C(=S)N2`: the “% Inhibition @ 10 uM” value is on record as 2.6%.

On to `COc1ccc(-c2noc(NCCCN3C(C)CCCC3C)n2)cc1OC` (stereo not shown), for which the “% Inhibition @ 10 uM” value was found to be 4.83%.

Consider `COc1ccc(OC)c(CNC(=O)C2CCCN(S(=O)(=O)N3CC(C)CC(C)C3)C2)c1` (stereo not shown), for which the “% Inhibition @ 10 uM” value stood at 6.86%.

On to `O=C1c2ccc([N+](=O)[O-])cc2C(=O)N1c1ccc([N+](=O)[O-])cn1`, for which the “% Inhibition @ 10 uM” value is on record as -0.0217%.

On to `NC(=O)c1nn(-c2ccccc2)nc1NC(=O)COc1ccccc1F`, for which the “% Inhibition @ 10 uM” value was 14.6%.

With `COc1ccc(S(=O)(=O)N2CCN(C)CC2)cc1OC`, the “% Inhibition @ 10 uM” value was -3.86%.

In the case of `Cc1ccc2oc(C(=O)Nc3cccnc3)cc(=O)c2c1`, the “% Inhibition @ 10 uM” value is on record as 5.06%.

Consider `C=CCn1c(Oc2ccc(F)cc2)nc2c1c(=O)n(C)c(=O)n2C`, for which the “% Inhibition @ 10 uM” value worked out at 5.15%.

Turning to `CCOC(=O)N1CCN(C(=O)CN(c2ccc(F)cc2)S(C)(=O)=O)CC1`, the “% Inhibition @ 10 uM” value is given as -2.46%.

As for `CCOC(=O)c1c(-c2ccc(OC)cc2)csc1/N=C/C1C(=O)c2ccccc2C1=O`, the “% Inhibition @ 10 uM” value amounted to 0.408%.

With `CC(=O)NC(Cc1ccccc1)c1nc2ccccc2n1Cc1ccccc1C` (stereo not shown), the “% Inhibition @ 10 uM” value is on record as -5.77%.

For the compound `CSc1ccc(CN(C)CCN(C)C)cc1`, the “% Inhibition @ 10 uM” value amounted to 0.815%.

For the compound `CSc1nc(N)c(C#N)c(-c2ccc(C(C)C)cc2)c1C#N`, the “% Inhibition @ 10 uM” value amounted to 2.05%.

On to `O=C(CN1CCCCC1)N1CCCc2c1c(=O)oc1ccc(OCc3ccccc3)cc21`, for which the “% Inhibition @ 10 uM” value is recorded as 1.52%.

Regarding `O=C(CCC(=O)Nc1ccc2c(c1)OCCO2)Nc1ccc2c(c1)OCCO2`, the “% Inhibition @ 10 uM” value is listed as -3.26%.

For the compound `Cc1cc(Nc2ccc(Cl)cc2)nc2ccccc12`, the “% Inhibition @ 10 uM” value is -3.74%.

For `COc1cc(NC(=O)CC2NC3CCCCC3NC2=O)cc(OC)c1` (stereo not shown), the “% Inhibition @ 10 uM” value was 4.11%.

`COC(=O)c1ccc(/C=c2/sc3nc(=O)c(-c4ccccc4)nn3c2=O)cc1`: the “% Inhibition @ 10 uM” value is -4.84%.

In the case of `CCC(C(=O)NCCC(C)C)n1ccc2cc(S(=O)(=O)N3CCCCC3)ccc21` (stereo not shown), the “% Inhibition @ 10 uM” value is 1.28%.

In the case of `O=C(c1cccc(F)c1)N1CCN(c2nc(-c3cccs3)cc(C(F)(F)F)n2)CC1`, the “% Inhibition @ 10 uM” value came to 9.56%.

With `O=C(Nc1cccnc1)c1scc2c1CCCC2`, the “% Inhibition @ 10 uM” value is on record as 1.01%.

Turning to `CC(Oc1ccc(C#N)cc1)C(=O)N1N=C(C(F)F)CC1(O)C(F)F` (stereo not shown), the “% Inhibition @ 10 uM” value is listed as -1.04%.

`CC1CCC(NC(=O)c2ccc3snnc3c2)CC1` (stereo not shown): the “% Inhibition @ 10 uM” value is given as -0.0235%.

Regarding `O=C(Cn1cnc2c(oc3ccccc32)c1=O)NCc1ccc2c(c1)OCO2`, the “% Inhibition @ 10 uM” value is listed as -6.05%.

As for `O=[N+]([O-])c1ccc(Cl)c(CN2CCN(c3cccc(Cl)c3)CC2)c1`, the “% Inhibition @ 10 uM” value is listed as -3.65%.

Values taken from article PMC6919601, “Identification of Plasmodium dipeptidyl aminopeptidase allosteric inhibitors by high throughput screening” (PLoS ONE, 2019).
